Results on 67 sequences are retold here after the supplement of paper PMC10126150.

Sequences with one replicate were seen in a single cluster, so their values are uncertain.
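Note: ATP exposure 15 min at 22 °C before imaging.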

The test system of the data set is ATP. As to the kind of experiment: switch fluorescence ratio, 500 uM ATP over buffer (Cy3 cluster intensity, sum of 5 cycles each) (fold (ratio)); higher = stronger signal-on switching upon ATP binding; sequences stand for … in TCGTCGGCAGCGTCAGATGTGTATAAGAGACAGTTTTTTTTTTTTTTTTTTTTTTTTT…TC. The following applies: aptamer strand: ATP DNA aptamer (quencher-CACCTGGGGGAGTATTGCGGAGGAAGG + anchor), 100 nM annealed; ATP concentration: 500 uM; one replicate. The procedure, abridged: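 Clusters with intensities outside 100-1000 RFU were excluded. The remaining Cy3-labelled switching-strand clusters on a modified Illumina MiSeq flow-cell had been annealed to 100 nM quencher-labelled ATP aptamer and imaged in selection buffer, then after 15 min with 500 uM ATP at 22 °C, for five cycles separated by NaOH stripping and re-annealing. The fluorescence ratio, averaged per switch-domain sequence, is each cluster's summed target-cycle Cy3 intensity over its summed buffer-cycle Cy3 intensity.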
TTATATTGC: the switch fluorescence ratio came out at 0.962. Regarding CTGATAATGT, the switch fluorescence ratio amounted to 1.05.

In the case of TAGACCGCAT, the switch fluorescence ratio worked out at 1.71. For AGGCCCGCGC, the switch fluorescence ratio is 0.994. For CATCCATGAG, the switch fluorescence ratio was determined as 1.01. Consider AAGGTGTGA, for which the switch fluorescence ratio worked out at 1.01. The value for TTTTTCTAGA was 1; that for CATGGGGACA was 0.944. Take CGCTTACCAG: the switch fluorescence ratio is 1.01. The value for TTGCACATTA was 1.04; that for TTGGTAGAA was 1; that for ACTTGGTGCC was 1.02.

In the case of CGCCCCGGAT, the switch fluorescence ratio is 1. For GAGCAAATAT, the switch fluorescence ratio stood at 4.41. Consider TAAAGATGTG, for which the switch fluorescence ratio was 0.975. Take GACTGACACA: the switch fluorescence ratio came out at 1.29.

As to AAAGTTAGCC, the switch fluorescence ratio is 1.01. Regarding TTTATTGTA, the switch fluorescence ratio came out at 0.945. AGCGAGGGTG: the switch fluorescence ratio was 1.04. The value for AATGTTCATA was 0.987; that for TTCCTGGATT was 1.02; that for GTTAATCAGT was 1.01. As for GCTCGAAGAT, the switch fluorescence ratio was 0.974. Take TAACGATGTG: the switch fluorescence ratio stood at 1.01. For AATAGACTGT, the switch fluorescence ratio came to 0.968.

As for CTTTGGCATG, the switch fluorescence ratio amounted to 1.03. The value for GATACTCCAC was 2.05; that for TATCGTACT was 1.11. The value for TTCAGGAACT was 0.977. On to GCCTAGTCCC, for which the switch fluorescence ratio is 1.01. For the sequence ATTGTGTAGA, the switch fluorescence ratio was 1.06. Take ACCTTTGTGA: the switch fluorescence ratio was found to be 1.01. On to TGCGGGCGGT, for which the switch fluorescence ratio was 0.976. In the case of ACCTCCATG, the switch fluorescence ratio was 1.09.

CCTTAGGTCT: the switch fluorescence ratio amounted to 1.05. CAGCATCGTG: the switch fluorescence ratio is 0.976.

With ATAGAGCAGA, the switch fluorescence ratio was found to be 1.01. Regarding ATTAAGTACG, the switch fluorescence ratio stood at 1.21. On to GAGGGCATCG, for which the switch fluorescence ratio came out at 0.979. With GCCTTTATTC, the switch fluorescence ratio worked out at 0.904. Consider CTTGGGATGC, for which the switch fluorescence ratio is 1.06.

As to CCGGACGATT, the switch fluorescence ratio is 1.1. TTTCCGCGTT: the switch fluorescence ratio worked out at 1.06. The value for CAGGATAAA was 1.02; that for AACCTAATTG was 0.98.

As to TTTTGCTTTA, the switch fluorescence ratio was 1.02. Consider CGGGGCTTAC, for which the switch fluorescence ratio is 1.79. Consider GGGCAGAACG, for which the switch fluorescence ratio is 0.986. Turning to GAAATAGCAA, the switch fluorescence ratio stood at 1.46. The value for TTAGAGAATT was 1.01; that for GTTTATGATC was 1.02. For the sequence CGTAGAGCTT, the switch fluorescence ratio is 1.05.

On to CTCGTTCGCT, for which the switch fluorescence ratio is 1.08. As to TTGGATGGT, the switch fluorescence ratio is 0.976. The value for CCGCCCAGAA was 1.75; that for CGTTCGCGGT was 1.46; that for GCCTGGGCCC was 0.981. As for AGCCTTTAAT, the switch fluorescence ratio stood at 1.02. On to CGTACTTTT, for which the switch fluorescence ratio amounted to 1.02. TGCCTGCTGT: the switch fluorescence ratio came to 1.01. The value for ACCTTACTCT was 2.87. For TAAGTGCCCG, the switch fluorescence ratio amounted to 0.959. The value for TAGGCATGCT was 1.03. With CCGATGGCGT, the switch fluorescence ratio is 1.28. The value for TAACCGGCGT was 1.04.

With CAGTTGCTAA, the switch fluorescence ratio was 1.03.

On to GAAATAGTCA, for which the switch fluorescence ratio came to 1.02.
